# Data from the supplement of paper PMC11417369.
# ± gives the standard deviation of the averaged measurements. The list shows a part of the results.
# Test system: PfAP2-G AP2 domain (GST-tagged)
# Experiment: gcPBM binding intensity (ln(normalized median fluorescence intensity)); higher = stronger DNA binding
# In short: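 GST-tagged P. falciparum DNA-binding domains, expressed in E. coli (about 25 μg on average), were applied for 1 h to an Agilent 4 × 180k array of primer-extended double-stranded 36-bp intergenic genomic probes plus negative controls. The binding buffer was 1× PBS with 1% milk, 0.2 mg/ml BSA, 0.5% salmon testes DNA and 0.03% Triton X-100. Bound protein was detected with Alexa488 anti-GST antibody and scanned at 488 nm. Binding intensity is the highest Masliner-normalised natural-log median intensity across replicate spots of either probe orientation.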
row,Sequence,gcPBM binding intensity (ln)
1,TTAATTTTTAGAAGAACACACACATATATATTATGA [CACACA_site7969],10.1 ± 0.16
2,CAAAAGCGATACGGCACACATTTCCTGTTTAAATGA [CACACA_site5519],10.1 ± 0.15
3,AAATTGATTATAAATTGTACAAGAACATACAACCTT [XGTACX_site5986],10.8 ± 0.38
4,TTATATTTCAATTAAACATGCATTTTTGTGTAGCAC [TGCATGCA_site214],9.805 ± 0.092
5,TCATATAGATTATACACACACATATATAGATATATA [CACACA_site6587],10.1 ± 0.14
6,TTATATATTTTATTATTTATAATCTTTTTTTTATTT [CACACA_negctrl_site112],9.585 ± 0.049
7,TATTTGTAATATTATACACACATTATGTATTACAAA [CACACA_site3386],10.1 ± 0.11
8,TTTTGTATATTATATGTACACACAATAAGTTAATAT [CACACA_site8207],11.5 ± 1
9,TTATGAATACTTCAAGTGCATTTATTTTATATGACA,10.2 ± 0.23
10,ATATTCTAAATAAAGGGTACACAAAAATAATTAAAG [XGTACX_site5529],11.6 ± 0.91
11,ATTGTGGATATTCTTACACACAAATTTATATATAAA [CACACA_site2601],10.01 ± 0.064
12,TCCCAATTTATTATGTGTACTTATTATATACATATA [XGTACX_site4033],11.5 ± 0.93
13,TATCAAAGTAGAAGAGATCGATGTCATATTGTGATG [GTGCAC_negctrl_site42],9.925 ± 0.021
14,TATGAACTTTTGGGGGTGCCTTAAAATGTATATTCT,10.8 ± 0.41
15,ATATATATATAAAGCAGTACACACATTTATTTTAGA [XGTACX_site7226],11.3 ± 0.71
16,CACAGACACGGACACACACACATATATATATATATA [CACACA_site5248],11.4 ± 0.83
17,ATACACACATATATGTGTACATATACATATATATAT [XGTACX_site6744],11.5 ± 0.77
18,ATAATATGAAGAAGCACACTCAATTAAATACAGATA [CACACA_site4690],9.97 ± 0.071
19,AACAAAATAGGGAACACACACATGTCGATATATAAA [CACACA_site7265],10.3 ± 0.2

row,Sequence,gcPBM binding intensity (ln)
1,TTATTTTTTTTAGCATATACAAATATATATATATAT [GTGCAC_negctrl_site4],9.81 ± 0.24
2,CTAAAAGGATGATGAATGCACTATTATTTATATGGA,9.84
3,ATAGAATATTTTATTACACACAGAATAATAAAAAAT [CACACA_site6190],9.955 ± 0.007
4,AAGAATTATTTTTTATGTACTTATATGTCAATTTTC [XGTACX_site6676],11.3 ± 0.83
5,TATATAATATATTTATGTACGTATTTAAAAATTTAT [XGTACX_site160],11.6 ± 0.98
6,TGTATTTATTAATGTACACACATGCGTATGTTCGTT [CACACA_site5892],11.2 ± 0.76
7,GAAGGAAATAAATCAACACACATATATTATATATAT [CACACA_site2188],9.77 ± 0.057
8,AAAATTGAAGGTAGAAGTACATATTTATTTCAATAA [XGTACX_site8732],11.3 ± 0.86
9,TTGTGTGAGCAAGTAGTGCATAATATAAATAAAAAA [GTGCAC_site9802],10.3 ± 0.25
10,TGAAATTTGTTATATGCATGTAAAATATTACGACGA [TGCATGCA_site201],9.985 ± 0.049
11,CATAAATATTTGTGTTGTACAAATATATATATTTAT [XGTACX_site7363],11 ± 0.51
12,AAATATGTCAAATATACACACATAATAAATATAATA [CACACA_site2310],9.84 ± 0.099
13,TTATAAGATGATTATAAAATCAAATTCATTCTTTTA [CACACA_negctrl_site1338],9.385 ± 0.035
14,TAAACATAACAAAGGAGTACAAAACTTGATCAGTTC [XGTACX_site3114],11.3 ± 0.81
15,AAAAAACAAAAAAATACACACATAAAAAGGTTTTAG [CACACA_site3584],9.91 ± 0.18
16,ATACTATAATAATACACACTCATTAGATATATAAAG [CACACA_site7787],9.99 ± 0.12
17,TATGTATAAAAATAATGTACAAAATATATTATATGT [XGTACX_site2794],10.9 ± 0.4
18,ATCTTAGTTGAAATATAGAATTTATAATAAAAGTTA [GTGCAC_negctrl_site122],9.595 ± 0.064
19,TGTACAAATATGTACACACACACATATTTATTTATA [CACACA_site6419],11.5 ± 0.95

row,Sequence,gcPBM binding intensity (ln)
1,AACATCAAAATATGCACACAAACAATTAGCGGTAGT [CACACA_site2521],10.21 ± 0.042
2,GATTTACATTTTGATGAAAATAATAAAATGTGGAAA [TGCATGCA_negctrl_site409],10 ± 0.11
3,ATATTTTATTTTTAAAGTACAAAAGAAAAGAATAAT [XGTACX_site8247],11.1 ± 0.77
4,AAAAAAAAAGACAAAAGTACAAAGGTTCATAATTTA [XGTACX_site3978],11 ± 0.61
5,CTTATATTTGGACACACACACAATAAAATGAAAAAA [CACACA_site6614],10.8 ± 0.64
6,AAATCTTCATAATAAAGTACTTAACTCTTGGTGTTA [XGTACX_site6112],10.9 ± 0.52
7,TACACAAGAAAATTCACACACACACCGATATATATA [CACACA_site6008],9.9 ± 0.16
8,AAAAAAAAAAAAAAAACATGCAGTTAGTGGTTTTTT [TGCATGCA_site243],10.31 ± 0.078
9,TAACAATTATGCTGGTGTACGTTTGAAATTGGGTAT [XGTACX_site6846],11.3 ± 0.8
10,AAAAATTTCTATTTTTGTACTTACTTTTTAGTAATA [XGTACX_site5236],11.3 ± 0.96
11,GAAATGGGTAAACATACACACACACCGATATATATA [CACACA_site8610],10.1 ± 0.12
12,GAAAAAAAAATACATACACACAATATATTTATTTAT [CACACA_site3124],9.98 ± 0.21
13,GGAACGTTCATATTTCCACACACAAAAAATAAATAT [CACACA_site9101],10.2 ± 0.13
14,TTTATTTTAAAATATAGTACGCAAATAAAAATAAAT [XGTACX_site7783],11.4 ± 1
15,ATATGTATTAAGTGTACACATATAATGGGTTTTCTT [CACACA_site5328],11.6 ± 0.73
16,TATTATATATAATATTGTACATTAAAATATTAAAGA [XGTACX_site3698],10.9 ± 0.67
17,ATATGTAGTGTTATTTGTTCATTGTTTTAATTTTTA [CACACA_negctrl_site1394],10.215 ± 0.007
18,TATATACTATATATATGTACACAAAATTATTTTGAA [XGTACX_site8232],11.5 ± 0.84
19,TAATTATATAAATACACACACATACACCCAAATAAA [CACACA_site5819],10.5 ± 0.35
